In the BET-seq Pho4 binding data (Le et al. 2018):
The other results are listed elsewhere or left out. The energies were worked out here from pooled read counts, against the library average; single values are noisy.

These sequences were tested against T1, Pho4 (S. cerevisiae) (UniProt P07270) (assay: relative binding free energy (BET-seq); higher = weaker binding). Conditions: reference: library average.
T1 sequence: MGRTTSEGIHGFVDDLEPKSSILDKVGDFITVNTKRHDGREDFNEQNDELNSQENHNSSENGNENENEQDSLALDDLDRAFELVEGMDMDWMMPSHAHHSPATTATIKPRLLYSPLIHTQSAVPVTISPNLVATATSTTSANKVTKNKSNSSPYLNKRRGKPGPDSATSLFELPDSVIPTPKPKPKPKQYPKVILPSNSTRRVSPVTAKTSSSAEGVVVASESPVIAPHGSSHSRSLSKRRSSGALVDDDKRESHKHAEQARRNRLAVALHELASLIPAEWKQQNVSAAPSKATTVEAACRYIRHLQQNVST

Sequence	relative binding free energy
GGAAGCACGTGAATGT	0.07 kcal/mol
GGTTTCACGTGGGGTG	0.26 kcal/mol
ATTATCACGTGTGGTT	0.25 kcal/mol
TCGGGCACGTGTGTAT	-0.04 kcal/mol
AAAGTCACGTGTCGGG	0.2 kcal/mol
GGTTGCACGTGACAAG	0.12 kcal/mol
AGGAACACGTGGGTGT	-0.17 kcal/mol
GACGGCACGTGTAGTT	0.01 kcal/mol
AATGTCACGTGTATGT	0.01 kcal/mol
GGGGTCACGTGCAAGG	0.28 kcal/mol
TCGGGCACGTGGCTGT	-0.15 kcal/mol
GGCGGCACGTGAGTAA	0.17 kcal/mol
TGTGGCACGTGGCTCT	-0.24 kcal/mol
CACTTCACGTGTTGTT	0.24 kcal/mol
TAGATCACGTGTGGGT	0.31 kcal/mol
ATGTGCACGTGGGCTT	-0.19 kcal/mol
TAAGGCACGTGAATTT	0.19 kcal/mol
GGCGCCACGTGTTGTT	-0.01 kcal/mol
ACGGTCACGTGTCGTT	0.16 kcal/mol
TTTAACACGTGATCTT	0.17 kcal/mol
TGGAACACGTGCGAGT	0.08 kcal/mol
TGAGGCACGTGCGATG	-0.06 kcal/mol
GTATTCACGTGACGGG	0.37 kcal/mol
CGAGGCACGTGGCAGG	-0.19 kcal/mol
TATGTCACGTGTTTGC	0.07 kcal/mol
TCTCGCACGTGGGTTG	-0.11 kcal/mol

Sequence	relative binding free energy
TGTGGCACGTGCTGAA	-0.09 kcal/mol
CAGGGCACGTGTGATG	-0.07 kcal/mol
GTGGGCACGTGTAAGT	0.02 kcal/mol
CTTGTCACGTGGCGTT	0.06 kcal/mol
TTGTGCACGTGGGACG	-0.07 kcal/mol
GGATGCACGTGTGTTT	0.1 kcal/mol
TTGCACACGTGTAAGT	0.13 kcal/mol
ATGTTCACGTGCTGGT	0.19 kcal/mol
AATTTCACGTGTGAGG	0.35 kcal/mol
GAATACACGTGTATGG	0.09 kcal/mol
CCTAGCACGTGTGTTT	0.1 kcal/mol
CGGGTCACGTGAGTCT	0.39 kcal/mol
AATTCCACGTGGTGTA	-0.01 kcal/mol
CATCGCACGTGTTGTG	-0.11 kcal/mol
GATTGCACGTGGCGCG	0 kcal/mol
TAGGTCACGTGACGTT	0.15 kcal/mol
ATTTGCACGTGGTAGG	-0.09 kcal/mol
ACATTCACGTGTTTGT	0.12 kcal/mol
GATGTCACGTGATGTA	0.21 kcal/mol
GGGAACACGTGACGTG	0.18 kcal/mol
GTAGGCACGTGAGCGT	0.07 kcal/mol
TCTAGCACGTGGGGTC	-0.22 kcal/mol
GTTTCCACGTGTGATT	0.1 kcal/mol
TGGCGCACGTGTGTAG	-0.04 kcal/mol
ATGGGCACGTGTCTTA	-0.17 kcal/mol
GTACTCACGTGAGGTG	0.25 kcal/mol

Sequence	relative binding free energy
CATCGCACGTGGGTGT	-0.24 kcal/mol
TAAGACACGTGTGGCA	0.15 kcal/mol
GTGGACACGTGTTACG	0.1 kcal/mol
TTTGACACGTGTGGTA	0.12 kcal/mol
AGTATCACGTGTATGC	0.09 kcal/mol
ATCGTCACGTGGATAT	0.21 kcal/mol
TTCGACACGTGTTGAT	0.03 kcal/mol
TCATGCACGTGGGGAA	-0.06 kcal/mol
GGCCTCACGTGAGGGG	0.24 kcal/mol
TGGAGCACGTGTAAGG	0.09 kcal/mol
CTAATCACGTGGTGGT	0.23 kcal/mol
CTGGTCACGTGTAAGA	0.18 kcal/mol
TATGGCACGTGGCGGT	-0.08 kcal/mol
TGGGCCACGTGTATTT	0.15 kcal/mol
TTTATCACGTGCTAAT	0.11 kcal/mol
GAGGCCACGTGATGTG	0.12 kcal/mol
GAGGACACGTGAGATG	0.31 kcal/mol
TGCTGCACGTGGATTG	0.04 kcal/mol
CATAGCACGTGTTAGT	-0.07 kcal/mol
TTGATCACGTGTCGGG	0.23 kcal/mol
CATGTCACGTGAGGTT	0.17 kcal/mol
TTATACACGTGGGATT	-0.02 kcal/mol
AAATTCACGTGGGTCA	0.12 kcal/mol
TGCGGCACGTGAGGAT	0.08 kcal/mol
GAAAGCACGTGGAGTG	-0.15 kcal/mol
TTAGTCACGTGATTTT	0.07 kcal/mol

Sequence	relative binding free energy
ATGCACACGTGATGGA	0.21 kcal/mol
TAAGACACGTGGTAGG	-0.14 kcal/mol
TGAGACACGTGTTTCG	0.04 kcal/mol
TTTCGCACGTGTGCAG	0.02 kcal/mol
ATTTCCACGTGGGTTA	-0.1 kcal/mol
TGGGACACGTGGTGAT	-0.04 kcal/mol
TTTCGCACGTGGAGAG	0.07 kcal/mol
GAGGGCACGTGTATGC	-0.12 kcal/mol
TTCTACACGTGTTTGT	-0.03 kcal/mol
ATTGACACGTGTTGAG	-0.08 kcal/mol
TTGTACACGTGACTGT	0.04 kcal/mol
CGTGGCACGTGTAGGG	-0.18 kcal/mol
TGTGACACGTGTGCGA	0.12 kcal/mol
TAAGGCACGTGGAATA	-0.01 kcal/mol
TATTCCACGTGTTATT	-0.04 kcal/mol
CATTTCACGTGGATGT	0.36 kcal/mol
TGTTTCACGTGTTTGA	0.26 kcal/mol
TATAGCACGTGTCAGA	0.14 kcal/mol
TTTAGCACGTGTGGTA	0.03 kcal/mol
AATCACACGTGGGGTG	-0.01 kcal/mol
AGGTTCACGTGGGACT	0.24 kcal/mol
TGGATCACGTGGGCTC	0.12 kcal/mol
AGATGCACGTGATGTA	0.07 kcal/mol
GGGTACACGTGTTCGG	0.06 kcal/mol
TATAACACGTGGTGGG	-0.09 kcal/mol
TATGTCACGTGACGGA	0.08 kcal/mol

Sequence	relative binding free energy
TTTGGCACGTGTTTGC	-0.1 kcal/mol
AATACCACGTGGGGGG	-0.19 kcal/mol
GCTGGCACGTGTTCGG	0.01 kcal/mol
AGTTGCACGTGTTTGC	-0.1 kcal/mol
TAAATCACGTGGAGGC	0.09 kcal/mol
GTGGACACGTGTGTAG	0.04 kcal/mol
TGAATCACGTGGAGAT	0.15 kcal/mol
CGAGGCACGTGTGTGC	-0.1 kcal/mol
CTGCACACGTGTAGGG	0.18 kcal/mol
CATGGCACGTGTGTTA	-0.07 kcal/mol
AAATGCACGTGGTTCT	0.05 kcal/mol
TATGGCACGTGCGGGA	-0.22 kcal/mol
CTGGACACGTGGAGGT	0.01 kcal/mol
GCTTGCACGTGAAGTT	0.33 kcal/mol
GTCTACACGTGTTTTA	0.13 kcal/mol
TTAACCACGTGTTGGT	-0.05 kcal/mol
TGTTGCACGTGTTAGC	0.08 kcal/mol
TTTATCACGTGAACGT	0.28 kcal/mol
GGAATCACGTGGTTAG	0.09 kcal/mol
GGTTTCACGTGTTGGT	0.4 kcal/mol
TATCGCACGTGTTGGA	-0.05 kcal/mol
ATTTGCACGTGCAGAG	0 kcal/mol
TTCGGCACGTGTTACG	-0.07 kcal/mol
ATATCCACGTGATGGG	0.21 kcal/mol
ATGGGCACGTGTGCCG	-0.21 kcal/mol
GCGTGCACGTGGGTAG	-0.15 kcal/mol

Sequence	relative binding free energy
AAGATCACGTGTAGGT	0.04 kcal/mol
GTAGCCACGTGTAGGT	-0.07 kcal/mol
CAGGGCACGTGGGCGG	-0.3 kcal/mol
TAGGTCACGTGGCGTG	-0.02 kcal/mol
AGAGACACGTGGGAAG	-0.09 kcal/mol
TTTGGCACGTGGGCCA	-0.24 kcal/mol
TGATTCACGTGCTCGG	0.24 kcal/mol
GCTTACACGTGGGGAA	0.16 kcal/mol
TGTAGCACGTGAGATT	0.22 kcal/mol
GCTTGCACGTGGTTTT	0.04 kcal/mol
TTTGTCACGTGGTCAT	-0.01 kcal/mol
TAGGTCACGTGTTCGA	0.03 kcal/mol
TAGTGCACGTGGGGTA	-0.17 kcal/mol
TATTACACGTGTGTTT	-0.01 kcal/mol
ATATACACGTGTTTTT	-0.07 kcal/mol
GGCGGCACGTGGTTGG	-0.01 kcal/mol
GGAAACACGTGTTTTT	0.07 kcal/mol
TGGGGCACGTGGGTCC	-0.21 kcal/mol
CTTAGCACGTGTGTAG	-0.19 kcal/mol
TGTATCACGTGTAGAG	0.16 kcal/mol
ATATACACGTGGTAGT	-0.13 kcal/mol
AGGGACACGTGTGACT	0.29 kcal/mol
CATTTCACGTGAAGGT	0.24 kcal/mol
TGGGGCACGTGCACGT	-0.19 kcal/mol
GGTTCCACGTGATGGT	0.1 kcal/mol
ACGTGCACGTGGTTAA	-0.07 kcal/mol

Sequence	relative binding free energy
TGTACCACGTGGTTTG	-0.06 kcal/mol
TTGGTCACGTGAATCG	0.28 kcal/mol
GTAGGCACGTGGTCAG	-0.16 kcal/mol
TTGCGCACGTGAGTGG	0.05 kcal/mol
TGAAGCACGTGTTGAA	-0.04 kcal/mol
GTCTGCACGTGGGTAG	-0.07 kcal/mol
TTAAACACGTGATGTG	0.09 kcal/mol
GAGTTCACGTGGATAG	0.27 kcal/mol
AAGAGCACGTGGGGCA	-0.16 kcal/mol
TTCGGCACGTGGCAGT	-0.08 kcal/mol
TGGAACACGTGGTACG	0.01 kcal/mol
GAAATCACGTGTCTGG	0.27 kcal/mol
TGGGGCACGTGAAAGA	0.08 kcal/mol
AGAGGCACGTGGAAAG	0.03 kcal/mol
AGGCGCACGTGTTGGT	-0.05 kcal/mol
TGAACCACGTGGGGTT	-0.11 kcal/mol
GAGAGCACGTGGTGGA	0.05 kcal/mol
GTTGACACGTGTGAGA	0.1 kcal/mol
AGGGTCACGTGAGTCT	0.33 kcal/mol
TACTTCACGTGTGATT	0.37 kcal/mol
GGGTTCACGTGAGGGT	0.47 kcal/mol
CGCGTCACGTGTTAGT	0.14 kcal/mol
TATATCACGTGTGCGT	0.17 kcal/mol
GTGTCCACGTGTATTT	0.09 kcal/mol
AGTTACACGTGTCTTT	0.21 kcal/mol
ATTGACACGTGTCGTG	-0.08 kcal/mol

Sequence	relative binding free energy
GGCGACACGTGCGGTT	0.11 kcal/mol
GGAGGCACGTGCGATG	-0.13 kcal/mol
TAGATCACGTGTAGTA	0.17 kcal/mol
AAGCTCACGTGTTTGT	0.34 kcal/mol
TTGTCCACGTGAGTTG	0.31 kcal/mol
GGTTTCACGTGCTAGG	0.27 kcal/mol
GTTTACACGTGTGTCC	0.27 kcal/mol
AATTTCACGTGGTAAA	0.25 kcal/mol
CGTGACACGTGTTTAG	-0.01 kcal/mol
ATGGACACGTGGTGTG	-0.09 kcal/mol
TATTTCACGTGGGATT	0.19 kcal/mol
AGGACCACGTGTGGAG	-0.05 kcal/mol
TACGACACGTGGGAGG	-0.12 kcal/mol
TAGTACACGTGGAAGG	0.13 kcal/mol
CGATTCACGTGGGCTT	0.2 kcal/mol
GGCGGCACGTGGGGAA	-0.08 kcal/mol
GACAGCACGTGTGTAG	0.12 kcal/mol
GGTAACACGTGCGTAG	0.09 kcal/mol
TGTATCACGTGACATG	0.05 kcal/mol
GGGTTCACGTGGGCGA	0.29 kcal/mol
TTTGCCACGTGTGTAG	-0.08 kcal/mol
GTGTGCACGTGATTTC	0.03 kcal/mol
GAGTTCACGTGTTCTA	0.33 kcal/mol
CAAGGCACGTGTGGTT	-0.06 kcal/mol
TGGCACACGTGAGAGT	0.32 kcal/mol
TGAAGCACGTGGCGTT	-0.25 kcal/mol

Sequence	relative binding free energy
TTCTTCACGTGCTTGT	0.11 kcal/mol
AGTGACACGTGGGACG	-0.07 kcal/mol
TATCGCACGTGTTAGA	0.01 kcal/mol
ATGCTCACGTGATGGT	0.24 kcal/mol
TTTGACACGTGGGACG	-0.08 kcal/mol
CGAGGCACGTGTGGTT	-0.01 kcal/mol
ATTTACACGTGAGGAT	0.19 kcal/mol
TAACGCACGTGTGGTA	-0.18 kcal/mol
AGGTACACGTGTTGTG	-0.02 kcal/mol
TCTCTCACGTGTTTGG	0.24 kcal/mol
CAGTGCACGTGAGTTG	0.3 kcal/mol
TATGCCACGTGGGTAG	-0.42 kcal/mol
TGTGACACGTGGGCCG	-0.16 kcal/mol
TGAGACACGTGCATGG	0.05 kcal/mol
TAATCCACGTGTGGTT	0.13 kcal/mol
CGATGCACGTGGAGGG	0.07 kcal/mol
TAAGACACGTGGAGGG	0.07 kcal/mol
AGAGACACGTGTATGT	0.01 kcal/mol
TGGCTCACGTGTAGGA	0.03 kcal/mol
AGATTCACGTGTGGCT	0.5 kcal/mol
AATGACACGTGATAGT	0.06 kcal/mol
GCATGCACGTGAAGGT	0.18 kcal/mol
